# Some of the results follow. At the low end of the ranking the order means little. The protein was read in a cell extract, so binding may be indirect.
# Biological target: T1, HNF4alpha2 (COS-7 nuclear extract) (UniProt P41235)
# T1 sequence: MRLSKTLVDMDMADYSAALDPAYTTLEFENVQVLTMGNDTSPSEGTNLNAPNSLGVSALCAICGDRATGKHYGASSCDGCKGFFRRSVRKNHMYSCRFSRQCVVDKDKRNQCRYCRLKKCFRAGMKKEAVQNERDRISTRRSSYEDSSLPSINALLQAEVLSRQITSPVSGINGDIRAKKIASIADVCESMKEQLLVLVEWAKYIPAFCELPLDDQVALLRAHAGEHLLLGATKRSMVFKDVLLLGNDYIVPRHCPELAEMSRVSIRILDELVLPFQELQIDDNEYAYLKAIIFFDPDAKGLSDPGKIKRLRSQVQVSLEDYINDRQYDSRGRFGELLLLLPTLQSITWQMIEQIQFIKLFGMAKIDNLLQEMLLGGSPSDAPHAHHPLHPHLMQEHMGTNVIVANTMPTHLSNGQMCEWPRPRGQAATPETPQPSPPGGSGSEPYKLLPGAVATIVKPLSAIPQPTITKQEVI
# Assay: protein-binding microarray
# Details: COS-7 nuclear extract on double-stranded Agilent 4x180k PBM; binding buffer, salt, pH and temperature not given; high values mean tight binding; double strand, one strand shown; sequences stand for … in …GCCTAGGGAGATTAGAGTATCGGTCGA
row,Sequence,binding signal (log2 normalized intensity)
1,ACTGGGGATAGAATCAAAGGTCAGGAATCG,3.29
2,CGCCAGCGCCCCCGTGTGGCCGCGAGCACC,2.59
3,CGGTCAGCTGCTTGACTTAGTACATGGCCT,0.557
4,ATGGCCAGCCTTTGGACTTTGAACTGCAAC,9.66
5,GAGATCAGGATACCAAGGCTCAGAGGTCAA,3.16
6,AACTGGGGGCATAGCCCATGCAAATACTCG,-1.16
7,TGTCACACTGGCCTTTGCCCTCGCTGGCGG,4.25
8,AATCCCTTAGGCTTTTGCACTTTACTCAGA,3.14
9,TGGGGCAGGGAAATATGTTCCACCCAGGGT,-1.04
10,TAACCTTCTGCTGGATGCCCAGGGATTCCT,-1.08
11,GAATGGCCAGAGTTCCTGTGCAAGCCCCTG,-0.332
12,GCTGATGGGACCAAAGGTGAAGGGGTCACC,3.37
13,TGAAACTCAGCATACAATGAATATTCAGAC,-1.09
14,GTTGAACCTCTGTCCTTGGCCTCACAGACA,-1.14
15,TTATCCCTCACAATCTTAAGATAAGGTCTT,0.338
16,GATGTTTAGCTATCAGTGTTGACCTCTGGA,5.32
17,TCGGGATTATGGTAGGCAGCCTCTGAGATG,-0.0677
18,TTGACCGCTGCCTCCCACCCCCACGGTGCG,5.29
19,AGTAACAGGGCACATGTACACAGGAATATC,-1.05
20,CATGGTGACTCTAGTCAATGTATTTTATTC,1.06
21,CTGGCTTCCCTTTGATCTTTCCCTTCCTGG,2.01
22,TTTAGGGTAGCCTGGGTTAAAGTCCGTTAC,4.55
23,CCCGTGTGGCCGCGAGCACCGCGCGCGCAA,-1.05
24,CACACTGGGAATTGGGATGGCAGCTTCATT,-0.852
25,CAAAACTGGAAATTCACGTCATTTTGTCAC,0.954

row,Sequence,binding signal (log2 normalized intensity)
1,ACCCAGTCTTAGGGACTAAGCTTGTAGACC,-1.11
2,TATCTCCTCTGTAGGGCAGCAGCCGGCCTC,-1.03
3,CTGAATCTCCCAGTGCTTTGATCTTCAACT,-0.689
4,TTTCCCAACAGGTGTTAAAATAACGACCTT,2.26
5,CCACACTGGTAACCTTTAGTCTCCAGATAA,2.3
6,GCAAGGCATGGTGCTTCGCACTTCAGCACC,0.783
7,ATTATCTTTATTATCCCAGTAGAGAAACAA,0.68
8,AAGGTGGAACTCAAGATAGTTCAGCCATCA,-1.1
9,CAGCTTGATAATCCCCATGGGACCAATACA,-1.01
10,TTTGCACTTGTTTTTTCAGGTGTTGCTCTC,1.67
11,GTCCTACAGGACATTAATCAGTCGCGTATC,-1.32
12,TCCCCACGTGGCAATCATTCTGTCTGCCTT,-1.04
13,AGAATTACAAACAGCCCTGACATTCTTGAG,-0.854
14,CATTGCCACACTATTTACACAGCTGATGGA,-0.595
15,AGGCCAAACAAAAATATGGACTTTGGAATT,7.99
16,CTCCAGAGTCCAAACTGGGACCTGTGACAC,1.62
17,GATGCTAGGTTTGTGAGTCCAAAGGTCAGC,9.14
18,GTAGCTCAAACAGTCTAAAAACCATAGACA,-1.36
19,CTGCTTGGGAGAACCTGTGCTTCTGGTTCT,0.756
20,CATTTGCTTGACCCGGGTACTGGAAACTGG,1.58
21,TACGCAACTGAAATTGCACTCTTTGACTAA,-0.747
22,ACTTCAAAAGCCGGGGAAAGGGAAAAAGGG,-1.07
23,GCAGAGCAGTTTAGAGAAAGGGTCAAAGGT,5.29
24,GCTAGAGAAAAAGAAAAGCCTTGTGGCAGT,-1.15
25,GGTGGTTTGGGTAATAACATGTAATTGCAT,0.957

row,Sequence,binding signal (log2 normalized intensity)
1,GTACATTGCACCCTCCAGGAGCCCCTTACC,1.28
2,TCTAATGAACTGATTAGAACATTAAGTCCA,1.25
3,TCCTGGGAGAACAAACCTTATCTCTCAAGG,-0.715
4,CTTATCCAAAGCTGCTGGGAGGTAGCTCAA,-0.982
5,CAAAGTACATATTTACTTACCTTTTCTAAT,1.42
6,CCTTGTTCTCAGAGATCAAAGGTGAGTGGG,3.48
7,GGCGTCTTATCAGCCCCCATGTCAGGGAAG,2.64
8,ACCTAGAGGAGAGAGTAAATAATTGATGAA,-1.14
9,AGGCTAGTAACACTCACATTCCACGTTTGG,1.07
10,CAAGCTGACAAACATGTATCAGTGATAGAC,0.561
11,CTAAAGGAAGGGAGGTGAGTGCTAGCATTG,-1.12
12,ACAGCAGGCTCACAAGATTGCATTCTTTGA,-1.14
13,CTCTCCTATTCAGGTATTTGCTCTGTGATA,0.775
14,CTGCTTCCAAAACATTGTAGAATTATCCAG,-0.609
15,CTGTTCGATGTATACAGTATCTATAGTTAT,1.28
16,GTCTTGAGCGCAAATGATCAAAGGTCGGTT,5.6
17,TTCAGTCTTTGTCTTAGCCTGCTCTTTTCC,1.59
18,ATCTTAGCTTCAGCTTTGCTTAGACCGGCA,-0.98
19,CAAAGGTTGGACTGAGGACCACATGAGTAA,-0.0147
20,AAGGAAACTGCTTGGGCCCCTCCCTCACAC,2.15
21,CTTGCCCAAGGGCATGGGAAGCAGTGAGGG,-1.19
22,CAACGGTGAGTCAAGCACTTCTCACATCAC,-1.08
23,GATAGGCAAAGTGGCTAGGACCTTTGAACC,6.41
24,TTCCTCCCACTCTGACATCCCCCTTTCTCT,3.26
25,CCCCCATTTGGTAATGGGCCCCCATTACCA,3.87

row,Sequence,binding signal (log2 normalized intensity)
1,CTGAATGAGCTCTGGGGTCCTCTGCTGCCC,0.313
2,TATTTTAAGTTGCAATGCATGCTGCCAAAC,-1.18
3,CCATCCTCCCACCTCAGCCTCTTGAGTAGC,1.8
4,ACTTGGCTCACATGATTGTGGAGGATGGGA,0.412
5,TCATTTCTGCTTGCAACCAAAGGAGTCCTG,0.346
6,GATTAAAAGCACATAAGAGAAAAATCTTCA,-1.06
7,AAGGGTCAGCCTGCAAGTTAGGACAGCCCC,1.15
8,TAAAAGGTAACATCAAAGCCAGGACTTCTA,-1.04
9,CCTCCATTAACTAACCTTTGAACCAGATGG,4.77
10,ATGCAATTTCTGAGAGAGAAAGAGACAGAG,-1.2
11,TCAGGTTTCAAATACTCCAGTCATTGTACA,1.4
12,CACTTTAGGTGCTCTTGGCTAAGACAGGGG,-0.552
13,CCTTTGTATATTCCCTTTGTATGGCAGGGG,2.35
14,GGACTTTGTGCAAATGGAAAATTGTAATCT,2.01
15,TACAGTTCTGGAGGTGAGAAGCCTGAAATG,-1.02
16,GAAATGTAGTGACAGAAGGGAGAGTCCAAG,0.403
17,AAGAATTCTTTCTCAAATATGTTTAACCTG,0.554
18,TTAAGAAGTAGGTGTGCCTCCTCCATCTCC,-0.669
19,ATAAGGCGTAGTTCAGAGAAAACGAGGCAC,-0.416
20,CGCTTTCATGAGATGAAAGCTTCTGCGGAA,-0.524
21,TAAAGTCTACAAGTGGATATTCAGACCTCT,0.192
22,CCCTTCCTGGCCAACATCCAGGCCTGGCAG,-1.17
23,TGCAAGTACGATTGGCTGGACATCTGGGAT,0.438
24,TGCTTTCTTATCTGGGGGCCATTCCTCTAT,1.1
25,TTAATGCCTGGGAACACAATAGGAATTCAA,-1.06

row,Sequence,binding signal (log2 normalized intensity)
1,AGTCCAGCTGTGCCCCAGTCCTTCAGTCCT,-0.997
2,ACTTAAAAGAAGCTACTAGCAAATCTGCCC,-1.17
3,ATGACCCTAATGGGGTACTTGAACCCTACT,3.14
4,CCAGTGGAATGCAAATATAGAAATAAAAGA,-0.843
5,TGCAGATAAGCCACGAGCCTGCCTGCTCCT,-1.32
6,GTTCCAAACCTACACAGACCCTCTTTTCTT,-0.893
7,AGATGGATTACATGGGAGATAGAGCAGTGG,-1.07
8,AACAGCTGTGCCATGCTTTTCAGTGCAAGG,-0.983
9,GCGCCGGGGGGACGCGCTTGGGCGACGGAC,-1.1
10,AGATACTATAATTAGAATCTGCAGGATCCC,-0.951
11,ACATTGGAATGCGGGCTCCACCACTTGCTC,-1.13
12,ATCATAGTGTTTGCCTTATTTGAACACAGT,2.31
13,CCTCCCCCTTGGTGTTTAAACACATTTTTT,2.14
14,ACCGGCAGAGAGAAGCCACTGCGACCTTTG,4.92
15,GGAGGTTATCTTGGGGCTGATGTCTTTCTG,1.47
16,AGTTGGTTGGAGCTATGGGCAGAAAAAAAT,0.323
17,TAAAGTCCGAACCTGCCAAAGAAGAAAACA,-1.09
18,CCTTTGAAGTGGGGGTGAGTCAGTCCCCAG,1.8
19,AGAGCATGAGAACTTCTTCCAATGAAAGGT,-1.02
20,ACGGTGCAGGGAGGATATCCCTCCGCCTCC,-1.03
21,CTTCCACCAGGGCTAGACCCGTCAGCCCTG,-0.982
22,GGGCCTCCATATTTGGAAGTAAGAACCCCA,1.69
23,AAAGAGCCATGGACTGCTGACCTTTGAACC,9.3
24,GTCATTGATGAAACTCCTTCCCTTTCATGT,1.5
25,AATCAAACTGAACTTTGAAACAAGCCCATC,2.87

row,Sequence,binding signal (log2 normalized intensity)
1,ACGCAAGCGAGTAAGGCCCGTGAGATTGAA,-0.911
2,CAGACCTTTGCCCTTTGTTTACATAGCTCC,3.7
3,CCTCTGCCTCTTGACCCCTTGGCCCCGCTG,4.36
4,GTAGACTAACGTATGGACTTTCTGATGTCA,1.66
5,GCAGTTTCTGCTATCTGCCTGCAGGAGAGA,-1.2
6,CTGAACTTTAAACTGGTGTGTCTTGCCTTT,2.06
7,CCTACTCATTCATATCACCTAGGTGGAATC,1.68
8,ATTTCACAAAGGGCAAAGTCCCCTTTCCTC,5.42
9,AAACAGGGAGCAGGCAGATTTGACCTACGG,1.57
10,GACACACCTAGGGAGTTAATCACAGGATTT,-1.25
11,GGGAACAAAACTTCACCTCCCCTAGACTTA,1.71
12,CCTTATGTAACTGTAACTATATTGACCACC,1.57
13,TGGAGTTTGCCCTTCACAAATTAGACAAGG,1.57
14,ACAGATTAAGTCACGTGGAGATAACACACA,-1.1
15,ACACAATATTATGTTTTGTTATCTGTGCCA,1.17
16,GTTCCAAAGTCCACCGTGGTGTAGAGGCCC,3.48
17,GAGGGGATTGATGGAATTCCACTGACTGCT,-1.06
18,ACCCCCAACTTCCCCAACCCTTGCACTGCT,3.93
19,AAAGGTCTGAGAACCAAGAGAGCCATTGGT,-0.915
20,AGATTTGAATATGTACATGGACTTTGAACC,10.3

# From publication PMC10726135
